Data on 31 compounds can be found in patent US7619094B2, “Ketoamides with cyclic P4's as inhibitors of NS3 serine protease of hepatitis C virus” (Schering Corporation, priority 2004, dated 2009).

SMILES strings stand for the structures.

The target of the test is Recombinant heterodimeric HCV NS3/NS4A protease (strain 1a) (Hepatitis C virus genotype 1a, UniProt P27958). The test is described as follows: HCV continuous assay (spectrophotometric HCV NS3/NS4A serine protease inhibition assay). The settings on record: Table 1; ranges of Ki* values in HCV continuous assay. Format: biochemical, HCV (strain 1a). An excerpt: The present invention relates to novel HCV protease inhibitors. This utility can be manifested in their ability to inhibit the HCV NS3/NS4a serine protease.
Assay for HCV Protease Inhibitory Activity:
• Spectrophotometric Assay: Spectrophotometric assay for the HCV serine protease can be performed on the inventive compounds by following the procedure described by R. Zhang et al, Analytical Biochemistry, 270 (1999) 268-275, the disclosure of which is incorporated herein by reference. The assay based on the proteolysis of chromogenic ester substrates is suitable for the continuous monitoring of HCV NS3 protease activity. The substrates are derived from the P side of the NS5A-NS5B junction sequence (Ac-DTEDWX(Nva), where X=A or P) whose C-terminal carboxyl groups are esterified with one of four different chromophoric alcohols (3- or 4-nitrophenol, 7-hydroxy-4-methyl-coumarin, or 4-phenylazophenol). Illustrated below are the synthesis, characterization and application of these novel spectrophotometric ester substrates to high throughput screening and detailed kinetic evaluation of HCV NS3 protease inhibitors. Materials and Methods:
Materials: Chemical reagents for assay related buffers are obtained from Sigma Chemical Company (St. Louis, Mo.). Reagents for peptide synthesis were from Aldrich Chemicals, Novabiochem (San Diego, Calif.), Applied Biosystems (Foster City, Calif.) and Perseptive Biosystems (Framingham, Mass.). Peptides are synthesized manually or on an automated ABI model 431A synthesizer (from Applied Biosystems). UV/VIS Spectrometer model LAMBDA 12 was from Perkin Elmer (Norwalk, Conn.) and 96-well UV plates were obtained from Corning (Corning, N.Y.). The prewarming block can be from USA Scientific (Ocala, Fla.) and the 96-well plate vortexer is from Labline Instruments (Melrose Park, Ill.). […] Protein concentrations are determined by the Biorad dye method using recombinant HCV protease standards previously quantified by amino acid analysis. Prior to assay initiation, the enzyme storage buffer (50 mM sodium phosphate pH 8.0, 300 mM NaCl, 10% glycerol, 0.05% lauryl maltoside and 10 mM DTT) is exchanged for the assay buffer (25 mM MOPS pH 6.5, 300 mM NaCl, 10% glycerol, 0.05% lauryl maltoside, 5 μM EDTA and 5 μM DTT) utilizing a Biorad Bio-Spin P-6 prepacked column. • Substrate Synthesis and Purification: The synthesis of the substrates is done as reported by R. Zhang et al, (ibid.) and is initiated by anchoring Fmoc-Nva-OH to 2-chlorotrityl chloride resin using a standard protocol (K. Barlos et al, Int. J. Pept. Protein Res., 37 (1991), 513-520). The peptides are subsequently assembled, using Fmoc chemistry, either manually or on an automatic ABI model 431 peptide synthesizer. […] The combined filtrate and DCM wash is evaporated azeotropically (or repeatedly extracted by aqueous Na2CO3 solution) to remove the acid used in cleavage. The DCM phase is dried over Na2SO4 and evaporated.
The ester substrates are assembled using standard acid-alcohol coupling procedures (K. Holmber et al, Acta Chem. Scand., B33 (1979) 410-412). Peptide fragments are dissolved in anhydrous pyridine (30-60 mg/ml) to which 10 molar equivalents of chromophore and a catalytic amount (0.1 eq.) of para-toluenesulfonic acid (PTSA) were added. Dicyclohexylcarbodiimide (DCC, 3 eq.) is added to initiate the coupling reactions. Product formation is monitored by HPLC and can be found to be complete following 12-72 hour reaction at room temperature. Pyridine solvent is evaporated under vacuum and further removed by azeotropic evaporation with toluene.
For the compound `C=CCNC(=O)C(=O)C(CC1CC1)NC(=O)[C@@H]1[C@@H]2[C@H](CN1C(=O)[C@@H](NC(=O)N[C@H](CN1Cc3ccccc3S1(=O)=O)C(C)(C)C)C(C)(C)C)C2(C)C` (stereo partly shown) [Compound 5165], the Ki was ≤ 50 nM.
Take `CNC(=O)C(=O)C(CCC(F)(F)F)NC(=O)[C@@H]1[C@@H]2[C@H](CN1C(=O)[C@@H](NC(=O)N[C@H](CN1CCN(C)S1(=O)=O)C(C)(C)C)C(C)(C)C)C2(C)C` (stereo partly shown) [Compound 5166]: the inhibitory constant (Ki) is ≤ 50 nM.
Regarding `CNC(=O)C(=O)C(CC1CC1)NC(=O)[C@@H]1[C@@H]2[C@H](CN1C(=O)[C@@H](NC(=O)N[C@H](CN1CCN(C)S1(=O)=O)C(C)(C)C)C(C)(C)C)C2(C)C` (stereo partly shown) [Compound 5167], the Ki is ≤ 50 nM.
In the case of `C#CCCC(NC(=O)[C@@H]1[C@@H]2[C@H](CN1C(=O)[C@@H](NC(=O)N[C@H](CN1CCCN(C)S1(=O)=O)C(C)(C)C)C(C)(C)C)C2(C)C)C(=O)C(=O)NCC=C` (stereo partly shown) [Compound 5168] it was ≤ 50 nM; in that of `C#CCCC(NC(=O)[C@@H]1[C@@H]2[C@H](CN1C(=O)[C@@H](NC(=O)N[C@H](CN1Cc3sccc3S1(=O)=O)C(C)(C)C)C(C)(C)C)C2(C)C)C(=O)C(=O)NCC=C` (stereo partly shown) [Compound 5169], ≤ 50 nM.
The same measure for `C#CCCC(NC(=O)[C@@H]1[C@@H]2[C@H](CN1C(=O)[C@@H](NC(=O)N[C@H](CN1Cc3ccccc3S1(=O)=O)C(C)(C)C)C(C)(C)C)C2(C)C)C(=O)C(=O)NCC=C` (stereo partly shown) [Compound 5170]: ≤ 50 nM.
For `C=CCNC(=O)C(=O)C(CCC)NC(=O)[C@@H]1[C@@H]2[C@H](CN1C(=O)[C@@H](NC(=O)N[C@H](CN1Cc3ccccc3S1(=O)=O)C(C)(C)C)C(C)(C)C)C2(C)C` (stereo partly shown) [Compound 5171], the inhibitory constant (Ki) is ≤ 50 nM.
In the case of `CC(C)(C)[C@H](NC(=O)N[C@H](CN1Cc2ccccc2S1(=O)=O)C(C)(C)C)C(=O)N1C[C@H]2[C@@H]([C@H]1C(=O)NC(CC1CC1)C(=O)C(N)=O)C2(C)C` (stereo partly shown) [Compound 5172], the Ki was ≤ 50 nM.
With `CC(C)(C)[C@H](NC(=O)N[C@H](CN1Cc2ccccc2S1(=O)=O)C(C)(C)C)C(=O)N1C[C@H]2[C@@H]([C@H]1C(=O)NC(CC1CCC1)C(=O)C(N)=O)C2(C)C` (stereo partly shown) [Compound 5173], the Ki is ≤ 50 nM.
Regarding `C=CCNC(=O)C(=O)C(CC1CCC1)NC(=O)[C@@H]1[C@@H]2[C@H](CN1C(=O)[C@@H](NC(=O)N[C@H](CN1Cc3ccccc3S1(=O)=O)C(C)(C)C)C(C)(C)C)C2(C)C` (stereo partly shown) [Compound 5174], the inhibition constant (Ki) is ≤ 50 nM.
In the case of `C=CCNC(=O)C(=O)C(CCC)NC(=O)[C@@H]1[C@@H]2[C@H](CN1C(=O)[C@@H](NC(=O)N[C@H](CN1CCCCS1(=O)=O)C(C)(C)C)C1CCCCC1)C2(C)C` (stereo partly shown) [Compound 5175] it was ≤ 50 nM; in that of `C=CCNC(=O)C(=O)C(CC1CC1)NC(=O)[C@@H]1[C@@H]2[C@H](CN1C(=O)[C@@H](NC(=O)N[C@H](CN1CCCCS1(=O)=O)C(C)(C)C)C1CCCCC1)C2(C)C` (stereo partly shown) [Compound 5176], ≤ 50 nM; in that of `C=CCNC(=O)C(=O)C(CCC)NC(=O)[C@@H]1[C@@H]2[C@H](CN1C(=O)[C@@H](NC(=O)N[C@H](CN1Cc3sccc3S1(=O)=O)C(C)(C)C)C1CCCCC1)C2(C)C` (stereo partly shown) [Compound 5177], ≤ 50 nM.
`C=CCNC(=O)C(=O)C(CCCC)NC(=O)[C@@H]1[C@@H]2[C@H](CN1C(=O)[C@@H](NC(=O)N[C@H](CN1Cc3sccc3S1(=O)=O)C(C)(C)C)C1CCCCC1)C2(C)C` (stereo partly shown) [Compound 5178]: the Ki is ≤ 50 nM.
In the case of `C=CCNC(=O)C(=O)C(CC1CC1)NC(=O)[C@@H]1[C@@H]2[C@H](CN1C(=O)[C@@H](NC(=O)N[C@H](CN1Cc3sccc3S1(=O)=O)C(C)(C)C)C1CCCCC1)C2(C)C` (stereo partly shown) [Compound 5179] it was ≤ 50 nM.
The same measure for `C=CCNC(=O)C(=O)C(CC1CCC1)NC(=O)[C@@H]1[C@@H]2[C@H](CN1C(=O)[C@@H](NC(=O)N[C@H](CN1Cc3sccc3S1(=O)=O)C(C)(C)C)C1CCCCC1)C2(C)C` (stereo partly shown) [Compound 5180]: ≤ 50 nM; for `CCCCC(NC(=O)[C@@H]1[C@@H]2[C@H](CN1C(=O)[C@@H](NC(=O)N[C@H](CN1Cc3ccccc3S1(=O)=O)C(C)(C)C)C(C)(C)C)C2(C)C)C(=O)C(N)=O` (stereo partly shown) [Compound 5181]: ≤ 50 nM.
The same measure for `C=CCNC(=O)C(=O)C(CC1CCC1)NC(=O)[C@@H]1[C@@H]2[C@H](CN1C(=O)[C@@H](NC(=O)N[C@H](CN1CCCCS1(=O)=O)C(C)(C)C)C1CCCCC1)C2(C)C` (stereo partly shown) [Compound 5182]: ≤ 50 nM; for `C=CCNC(=O)C(=O)C(CCCC)NC(=O)[C@@H]1[C@@H]2[C@H](CN1C(=O)[C@@H](NC(=O)N[C@H](CN1CCCCS1(=O)=O)C(C)(C)C)C1CCCCC1)C2(C)C` (stereo partly shown) [Compound 5183]: ≤ 50 nM.
Consider `CC(C)(C)[C@@H](CN1Cc2sccc2S1(=O)=O)NC(=O)N[C@H](C(=O)N1C[C@H]2[C@@H]([C@H]1C(=O)NC(CC1CCC1)C(=O)C(N)=O)C2(C)C)C1CCCCC1` (stereo partly shown) [Compound 5184], for which the Ki was ≤ 50 nM.
The same measure for `CC(C)(C)[C@@H](CN1Cc2sccc2S1(=O)=O)NC(=O)N[C@H](C(=O)N1C[C@H]2[C@@H]([C@H]1C(=O)NC(CC1CC1)C(=O)C(N)=O)C2(C)C)C1CCCCC1` (stereo partly shown) [Compound 5185]: ≤ 50 nM; for `CC(C)(C)[C@@H](CN1CCCCS1(=O)=O)NC(=O)N[C@H](C(=O)N1C[C@H]2[C@@H]([C@H]1C(=O)NC(CC1CC1)C(=O)C(N)=O)C2(C)C)C1CCCCC1` (stereo partly shown) [Compound 5186]: ≤ 50 nM.
In the case of `CC(C)(C)[C@@H](CN1CCCCS1(=O)=O)NC(=O)N[C@H](C(=O)N1C[C@H]2[C@@H]([C@H]1C(=O)NC(CC1CCC1)C(=O)C(N)=O)C2(C)C)C1CCCCC1` (stereo partly shown) [Compound 5187] it was ≤ 50 nM; in that of `C#CCCC(NC(=O)[C@@H]1[C@@H]2[C@H](CN1C(=O)[C@@H](NC(=O)N[C@H](CN1CCCCS1(=O)=O)C(C)(C)C)C1CCCCC1)C2(C)C)C(=O)C(=O)NCC=C` (stereo partly shown) [Compound 5188], ≤ 50 nM; in that of `CCCCC(NC(=O)[C@@H]1[C@@H]2[C@H](CN1C(=O)[C@@H](NC(=O)N[C@H](CN1CCCCS1(=O)=O)C(C)(C)C)C1CCCCC1)C2(C)C)C(=O)C(N)=O` (stereo partly shown) [Compound 5189], ≤ 50 nM.
In the case of `C=CCNC(=O)C(=O)C(CC1CCC1)NC(=O)[C@@H]1[C@@H]2[C@H](CN1C(=O)[C@@H](NC(=O)N[C@H](CN1CCCCS1(=O)=O)C(C)(C)C)C(C)(C)C)C2(C)C` (stereo partly shown) [Compound 5190] it was ≤ 50 nM.
Take `C=CCNC(=O)C(=O)C(CCCC)NC(=O)[C@@H]1[C@@H]2[C@H](CN1C(=O)[C@@H](NC(=O)N[C@H](CN1CCCCS1(=O)=O)C(C)(C)C)C(C)(C)C)C2(C)C` (stereo partly shown) [Compound 5191]: the Ki was ≤ 50 nM.
In the case of `CCCCC(NC(=O)[C@@H]1[C@@H]2[C@H](CN1C(=O)[C@@H](NC(=O)N[C@H](CN1Cc3sccc3S1(=O)=O)C(C)(C)C)C1CCCCC1)C2(C)C)C(=O)C(N)=O` (stereo partly shown) [Compound 5192], the Ki was ≤ 50 nM.
The same measure for `CC(C)(C)[C@H](NC(=O)N[C@H](CN1CCCCS1(=O)=O)C(C)(C)C)C(=O)N1C[C@H]2[C@@H]([C@H]1C(=O)NC(CC1CCC1)C(=O)C(N)=O)C2(C)C` (stereo partly shown) [Compound 5193]: ≤ 50 nM; for `C#CCCC(NC(=O)[C@@H]1[C@@H]2[C@H](CN1C(=O)[C@@H](NC(=O)N[C@H](CN1Cc3sccc3S1(=O)=O)C(C)(C)C)C1CCCCC1)C2(C)C)C(=O)C(=O)NCC=C` (stereo partly shown) [Compound 5194]: ≤ 50 nM; for `C#CCCC(NC(=O)[C@@H]1[C@@H]2[C@H](CN1C(=O)[C@@H](NC(=O)N[C@H](CN1CCCCS1(=O)=O)C(C)(C)C)C(C)(C)C)C2(C)C)C(=O)C(=O)NCC=C` (stereo partly shown) [Compound 5195]: ≤ 50 nM.
